The list shows a part of the results.
What was measured:
Assay in all cases: glycan array binding signal (z-score within array); higher = stronger binding
Conditions in all cases: glycan notation: IUPAC condensed, linker removed
[1] = target: Fuc(a1-3)[GalNAc(b1-4)]GlcNAc
Method in brief: (§1)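 The binding signal is a Z-score computed within each array and averaged over linkers. Arrays of the same protein sequence at different concentrations or buffers were also averaged together. Data originate from 3228 arrays in the Consortium for Functional Glycomics database, kept only where the protein sequence was available.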

Fuc(a1-4)GlcNAc = target: Fuc(a1-4)GlcNAc
Method in brief: as §1

Fuc(b1-3)GlcNAc = target: Fuc(b1-3)GlcNAc
Method in brief: as §1

Gal(a1-2)Gal = target: Gal(a1-2)Gal
Method in brief: as §1

Gal(a1-3)Gal = target: Gal(a1-3)Gal
Method in brief: as §1

Gal(a1-3)Gal(b1-3)GlcNAc = target: Gal(a1-3)Gal(b1-3)GlcNAc
Method in brief: as §1

Gal(a1-3)Gal(b1-4)Glc = target: Gal(a1-3)Gal(b1-4)Glc
Method in brief: as §1

Gal(a1-3)Gal(b1-4)GlcNAc = target: Gal(a1-3)Gal(b1-4)GlcNAc
Method in brief: as §1

[2] = target: Gal(a1-3)Gal(b1-4)[Fuc(a1-3)]GlcNAc
Method in brief: as §1

Gal(a1-3)GalNAc = target: Gal(a1-3)GalNAc
Method in brief: as §1

[3] = target: Gal(a1-3)[Gal(a1-4)]Gal(b1-4)GlcNAc
Method in brief: as §1

Gal(a1-4)Gal(b1-4)Glc = target: Gal(a1-4)Gal(b1-4)Glc
Method in brief: as §1

Gal(a1-4)Gal(b1-4)GlcNAc = target: Gal(a1-4)Gal(b1-4)GlcNAc
Method in brief: as §1

Gal(a1-4)GlcNAc = target: Gal(a1-4)GlcNAc
Method in brief: as §1

Gal(a1-6)Glc = target: Gal(a1-6)Glc
Method in brief: as §1

Gal(b1-2)Gal = target: Gal(b1-2)Gal
Method in brief: as §1

Gal(b1-3)Gal = target: Gal(b1-3)Gal
Method in brief: as §1

Gal(b1-3)Gal(b1-4)GlcNAc = target: Gal(b1-3)Gal(b1-4)GlcNAc
Method in brief: as §1

Gal(b1-3)GalNAc = target: Gal(b1-3)GalNAc
Method in brief: as §1

[4] = target: Gal(b1-3)GalNAc(b1-3)Gal(a1-4)Gal(b1-4)Glc
Method in brief: as §1

[5] = target: Gal(b1-3)GalNAc(b1-4)Gal(b1-4)Glc
Method in brief: as §1

[6] = target: Gal(b1-3)GalNAc(b1-4)[Neu5Ac(a2-3)]Gal(b1-4)Glc
Method in brief: as §1

Gal(b1-3)GlcNAc = target: Gal(b1-3)GlcNAc
Method in brief: as §1

[7] = target: Gal(b1-3)GlcNAc(b1-2)Man(a1-3)[Gal(b1-3)GlcNAc(b1-2)Man(a1-6)]Man(b1-4)GlcNAc(b1-4)GlcNAc
Method in brief: as §1

[8] = target: Gal(b1-3)GlcNAc(b1-3)Gal(b1-3)GlcNAc
Method in brief: as §1

[9] = target: Gal(b1-3)GlcNAc(b1-3)Gal(b1-4)Glc
Method in brief: as §1

[10] = target: Gal(b1-3)GlcNAc(b1-3)Gal(b1-4)GlcNAc
Method in brief: as §1

[11] = target: Gal(b1-3)[Fuc(a1-4)]GlcNAc
Method in brief: as §1

[12] = target: Gal(b1-3)[Fuc(a1-4)]GlcNAc(b1-3)Gal(b1-3)[Fuc(a1-4)]GlcNAc
Method in brief: as §1

[13] = target: Gal(b1-3)[Fuc(a1-4)]GlcNAc(b1-3)Gal(b1-4)GlcNAc
Method in brief: as §1

[14] = target: Gal(b1-3)[Fuc(a1-4)]GlcNAc(b1-3)Gal(b1-4)[Fuc(a1-3)]GlcNAc
Method in brief: as §1

[15] = target: Gal(b1-3)[GlcNAc(b1-6)]GalNAc
Method in brief: as §1

[16] = target: Gal(b1-3)[Neu5Ac(a2-6)]GalNAc
Method in brief: as §1

[17] = target: Gal(b1-3)[Neu5Ac(a2-6)]GlcNAc(b1-6)Gal(b1-4)Glc
Method in brief: as §1

[18] = target: Gal(b1-3)[Neu5Ac(b2-6)]GalNAc
Method in brief: as §1

[19] = target: Gal(b1-4)GalNAc(a1-3)[Fuc(a1-2)]Gal(b1-4)GlcNAc
Method in brief: as §1

[20] = target: Gal(b1-4)GalNAc(b1-3)[Fuc(a1-2)]Gal(b1-4)GlcNAc
Method in brief: as §1

Gal(b1-4)Glc = target: Gal(b1-4)Glc
Method in brief: as §1

Gal(b1-4)Glc6S = target: Gal(b1-4)Glc6S
Method in brief: as §1

Gal(b1-4)GlcNAc = target: Gal(b1-4)GlcNAc
Method in brief: as §1

[21] = target: Gal(b1-4)GlcNAc(a1-6)Gal(b1-4)GlcNAc
Method in brief: as §1

[22] = target: Gal(b1-4)GlcNAc(b1-2)Man(a1-3)[Gal(b1-4)GlcNAc(b1-2)Man(a1-6)]Man(b1-4)GlcNAc(b1-4)GlcNAc
Method in brief: as §1

[23] = target: Gal(b1-4)GlcNAc(b1-3)Gal(b1-3)GlcNAc
Method in brief: as §1

[24] = target: Gal(b1-4)GlcNAc(b1-3)Gal(b1-4)Glc
Method in brief: as §1

[25] = target: Gal(b1-4)GlcNAc(b1-3)Gal(b1-4)GlcNAc
Method in brief: as §1

B1: MD-2 (Homo sapiens) (protein)
chain: MLPFLFFSTLFSSIFTEAQKQYWVCNSSDASISYTYCDKMQYPISINVNPCIELKGSKGLLHIFYIPRRDLKQLYFNLYITVNTMNLPKRKEVICRGSDDDYSFCRALKGETVNTTISFSFKGIKFSKGKYKCVVEAISGSPEEMLFCLEFVILHQPNSN
- glycan array binding signal (z-score) [1]: -0.204
- glycan array binding signal (z-score) (Fuc(a1-4)GlcNAc): -0.178
- glycan array binding signal (z-score) (Fuc(b1-3)GlcNAc): -0.172
- glycan array binding signal (z-score) (Gal(a1-2)Gal): -0.401
- glycan array binding signal (z-score) (Gal(a1-3)Gal): -0.429
- glycan array binding signal (z-score) (Gal(a1-3)Gal(b1-3)GlcNAc): -0.326
- glycan array binding signal (z-score) (Gal(a1-3)Gal(b1-4)Glc): -0.408
- glycan array binding signal (z-score) (Gal(a1-3)Gal(b1-4)GlcNAc): -0.33
- glycan array binding signal (z-score) [2]: -0.342
- glycan array binding signal (z-score) (Gal(a1-3)GalNAc): -0.399
- glycan array binding signal (z-score) [3]: -0.519
- glycan array binding signal (z-score) (Gal(a1-4)Gal(b1-4)Glc): 0.306
- glycan array binding signal (z-score) (Gal(a1-4)Gal(b1-4)GlcNAc): -0.184
- glycan array binding signal (z-score) (Gal(a1-4)GlcNAc): -0.191
- glycan array binding signal (z-score) (Gal(a1-6)Glc): 0.305
- glycan array binding signal (z-score) (Gal(b1-2)Gal): -0.261
- glycan array binding signal (z-score) (Gal(b1-3)Gal): -0.376
- glycan array binding signal (z-score) (Gal(b1-3)Gal(b1-4)GlcNAc): -0.448
- glycan array binding signal (z-score) (Gal(b1-3)GalNAc): -0.356
- glycan array binding signal (z-score) [4]: -0.306
- glycan array binding signal (z-score) [5]: -0.228
- glycan array binding signal (z-score) [6]: -0.325
- glycan array binding signal (z-score) (Gal(b1-3)GlcNAc): -0.407
- glycan array binding signal (z-score) [7]: -0.471
- glycan array binding signal (z-score) [8]: -0.245
- glycan array binding signal (z-score) [9]: -0.2
- glycan array binding signal (z-score) [10]: -0.323
- glycan array binding signal (z-score) [11]: -0.246
- glycan array binding signal (z-score) [12]: -0.351
- glycan array binding signal (z-score) [13]: -0.258
- glycan array binding signal (z-score) [14]: -0.131
- glycan array binding signal (z-score) [15]: -0.346
- glycan array binding signal (z-score) [16]: -0.339
- glycan array binding signal (z-score) [17]: -0.334
- glycan array binding signal (z-score) [18]: -0.096
- glycan array binding signal (z-score) [19]: -0.434
- glycan array binding signal (z-score) [20]: -0.457
- glycan array binding signal (z-score) (Gal(b1-4)Glc): -0.282
- glycan array binding signal (z-score) (Gal(b1-4)Glc6S): 0.057
- glycan array binding signal (z-score) (Gal(b1-4)GlcNAc): -0.259
- glycan array binding signal (z-score) [21]: -0.39
- glycan array binding signal (z-score) [22]: -0.364
- glycan array binding signal (z-score) [23]: 0.081
- glycan array binding signal (z-score) [24]: -0.302
- glycan array binding signal (z-score) [25]: -0.144

Reference: the supplement of paper PMC8728848
